Measured values published in patent US20140093592A1, “[…] THE TREATMENT OF TREATMENT-[…] TREATMENT-RESISTANT DEPRESSION” (Janssen Pharmaceutica NV, priority 2012, published 2014).

Key:
[1] = tested on: adult subjects with treatment-resistant depression (TRD); test: Phase 2a clinical study of i.v. esketamine in TRD: MADRS total score
[2] = tested on: adult subjects with treatment-resistant depression (TRD); test: Brief Psychiatric Rating Scale (BPRS) total score, same clinical study

CN[C@]1(c2ccccc2Cl)CCCCC1=O.Cl [Esketamine, (S)-2-(2-chlorophenyl)-2-(methylamino)cyclohexanone hydrochloride]
MADRS total score, Mean (SE) ([1]; 0.20 mg/kg, Day 1 (Predose)): 33.11 (1.184) | MADRS total score, Mean (SE) ([1]; 0.20 mg/kg, Day 4 (2 Hour)): 11.00 (2.734) | MADRS total score, Mean (SE) ([1]; 0.20 mg/kg, Day 4 (4 Hour)): 11.00 (3.082) | MADRS total score, Mean (SE) ([1]; 0.20 mg/kg, Day 5): 11.67 (2.814) | MADRS total score, Mean (SE) ([1]; 0.20 mg/kg, Day 6): 11.33 (3.559) | MADRS total score, Mean (SE) ([1]; 0.20 mg/kg, Day 7): 11.67 (4.295) | MADRS total score, Mean (SE) ([1]; 0.40 mg/kg column (most subjects 0.4 mg/kg, one 0.8, two 0.2), Day 10): 11.66 (2.085) | MADRS total score, Mean (SE) ([1]; 0.40 mg/kg column (most subjects 0.4 mg/kg, one 0.8, two 0.2), Day 14): 11.24 (1.900) | MADRS total score, Mean (SE) ([1]; 0.40 mg/kg column (most subjects 0.4 mg/kg, one 0.8, two 0.2), Day 17): 11.74 (1.985) | MADRS total score, Mean (SE) ([1]; 0.40 mg/kg column (most subjects 0.4 mg/kg, one 0.8, two 0.2), Day 21): 13.14 (2.000) | MADRS total score, Mean (SE) ([1]; 0.40 mg/kg column (most subjects 0.4 mg/kg, one 0.8, two 0.2), Day 28): 11.50 (2.217) | MADRS total score, Mean (SE) ([1]; 0.40 mg/kg column (most subjects 0.4 mg/kg, one 0.8, two 0.2), Day 35): 13.59 (2.547) | MADRS total score, Mean (SE) ([1]; 0.40 mg/kg, Day 1 (Predose)): 33.73 (1.753) | MADRS total score, Mean (SE) ([1]; 0.40 mg/kg, Day 4 (2 Hour)): 16.25 (2.151) | MADRS total score, Mean (SE) ([1]; 0.40 mg/kg, Day 4 (4 Hour)): 15.75 (2.161) | MADRS total score, Mean (SE) ([1]; 0.40 mg/kg, Day 4 (Predose)): 19.64 (3.834) | MADRS total score, Mean (SE) ([1]; 0.40 mg/kg, Day 5): 14.45 (2.261) | MADRS total score, Mean (SE) ([1]; 0.40 mg/kg, Day 6): 12.68 (2.151) | MADRS total score, Mean (SE) ([1]; 0.40 mg/kg, Day 7): 14.75 (2.533) | BPRS total score, Mean (SE) ([2]; 0.20 mg/kg, Day 1 (2 Hour)): 0.22 (0.222) | BPRS total score, Mean (SE) ([2]; 0.20 mg/kg, Day 1 (4 Hour)): 0.00 (0.000) | BPRS total score, Mean (SE) ([2]; 0.20 mg/kg, Day 1 (15 Min.)): 1.11 (0.611) | BPRS total score, Mean (SE) ([2]; 0.20 mg/kg, Day 1 (30 Min.)): 1.67 (0.799) | BPRS total score, Mean (SE) ([2]; 0.20 mg/kg, Day 1 (40 Min.)): 1.67 (0.957) | BPRS total score, Mean (SE) ([2]; 0.20 mg/kg, Day 1 (Predose)): 0.11 (0.111) | BPRS total score, Mean (SE) ([2]; 0.20 mg/kg, Day 2): 0.00 (0.000) | BPRS total score, Mean (SE) ([2]; 0.20 mg/kg, Day 4 (2 Hour)): 0.00 (0.000) | BPRS total score, Mean (SE) ([2]; 0.20 mg/kg, Day 4 (4 Hour)): 0.00 (0.000) | BPRS total score, Mean (SE) ([2]; 0.20 mg/kg, Day 4 (15 Min.)): 0.22 (0.222) | BPRS total score, Mean (SE) ([2]; 0.20 mg/kg, Day 4 (30 Min.)): 0.89 (0.588) | BPRS total score, Mean (SE) ([2]; 0.20 mg/kg, Day 4 (40 Min.)): 0.89 (0.588) | BPRS total score, Mean (SE) ([2]; 0.20 mg/kg, Day 4 (Predose)): 0.00 (0.000) | BPRS total score, Mean (SE) ([2]; 0.20 mg/kg, Day 5): 0.00 (0.000) | BPRS total score, Mean (SE) ([2]; 0.40 mg/kg, Day 1 (2 Hour)): 0.00 (0.000)
